Experimental data: the supplement of paper PMC11417369
± gives the standard deviation of the averaged measurements. The list shows a part of the results.

These sequences were tested on PfAP2-I AP2 domain 3 (GST-tagged) (assay: gcPBM binding intensity (ln(normalized median fluorescence intensity)); higher = stronger DNA binding).
In short: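 An Agilent 4 × 180k array of primer-extended double-stranded 36-bp intergenic genomic probes, with negative controls, was incubated for 1 h with GST-tagged P. falciparum DNA-binding domains expressed in E. coli. Alexa488 anti-GST antibody detected bound protein, scanned at 488 nm. Binding intensity is the highest Masliner-normalised natural-log median intensity across replicate spots of either probe orientation.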

Row | Sequence | gcPBM binding intensity (ln)
1 | ATCAATACTTTTTTGGGTACATAAATATATATATAT [XGTACX_site8436] | 9.295 ± 0.078
2 | ATATTATGAATTGTCACACATATATTTAAAAATGTA [CACACA_site4852] | 7.69 ± 0.47
3 | TGCATATTACTTTTTCACATAAAAATGATCCGATTA [GTGCAC_negctrl_site526] | 7.62 ± 0.41
4 | TAAATATGTGTATGTAGTACATAGTGTTTTTTTTTT [XGTACX_site3748] | 7.63 ± 0.26
5 | AAAAAATGACTTAATATGAGCATATATTATGTTGTT [CACACA_negctrl_site1609] | 7.35 ± 0.52
6 | GTTATACACATCAACACACACATACAACGTGGTGTA [CACACA_site6677] | 7.8 ± 0.59
7 | AAAATATAAAAATGAAGTACAAAAAAAAAAAAAAAA [XGTACX_site8132] | 8.04 ± 0.79
8 | CATTAAAATTGAGAGATGCACTTTTTAAGACCTTGT | 8.53 ± 0.39
9 | TTTTTTTTTTTTTTTTTTTTACCCCTTTTTCAAAAA [CACACA_negctrl_site1524] | 8.21 ± 0.69
10 | AAAACATTGTTTATGTGTACATAATTATATTTACAA [XGTACX_site6926] | 7.76 ± 0.33
11 | TCTAACATATAATATTCACACACATATATATATTAT [CACACA_site8236] | 7.75 ± 0.47
12 | TGGTTTCAATAATTAATAAAATATATTATTGTGAAA [CACACA_negctrl_site442] | 7.28 ± 0.45
13 | ATAATATATTTATAATGTACAAACCATTTGTATTAA [XGTACX_site4370] | 7.58 ± 0.46
14 | ATTATTATTATATTTTGTACATATGTAACAATATAT [XGTACX_site5780] | 7.83 ± 0.47
15 | GCTTCTTAATATCATACACACATAGATATATTTATA [CACACA_site5676] | 8.11 ± 0.58
16 | GGAGACTTTGTATTGGGTACGTATTTCAATGCATGT [XGTACX_site1596] | 8.25 ± 0.59
17 | TTTTTTAACAAAAATAAAACATAACTGAATTAAAAG [GTGCAC_negctrl_site244] | 7.8 ± 0.56
18 | CTTCCTATATTTTACTGTACTTTTTTTTTTTTTTTT [XGTACX_site4016] | 8.81 ± 0.27
19 | CATACATACATACATACACACACATATATATATATA [CACACA_site8593] | 9.7 ± 0.4
20 | AAACCTTTACATCGTTTGCACTATATTGATATGTGT [GTGCAC_site9686] | 9.38 ± 0.35
21 | ACGAATTAAATTTGCTGTACCAAAAAGAAAACAATA [XGTACX_site5511] | 7.88 ± 0.54
22 | TAAAATGTACAGGACGCACACACATATATATATATA [CACACA_site3673] | 9.42 ± 0.44

Row | Sequence | gcPBM binding intensity (ln)
23 | TTTTTTTTTTTTCATTGTACTCTTAAAAATTCAACT [XGTACX_site3154] | 8.24 ± 0.85
24 | TATTTTTTTTTTTTTTTACACACTATAGGGAAAAAA [CACACA_site8583] | 7.79 ± 0.46
25 | ATTAAAATTTAAAATACACACACATATATATAATAT [CACACA_site8612] | 7.91 ± 0.42
26 | AACAACAACTAATATGCACACATTTAAAAACAAAAT [CACACA_site2440] | 9.42 ± 0.26
27 | TGTCATGATACATACACACACATACCCATACCCATA [CACACA_site5211] | 8.02 ± 0.38
28 | AAATAAAGCATGTGCTGTACAAACGAAATATTTAAG [XGTACX_site3146] | 8.38 ± 0.61
29 | TTTATGTGTATTAAGTGTACACATATAGTGTATTTT [XGTACX_site999] | 7.96 ± 0.18
30 | ATATATAAGGAAAAAAGTACTTATATTTTTTTTTTG [XGTACX_site1909] | 7.38 ± 0.42
31 | AACAAATGTTAAATGTTTAAGGAGAAAATAAAGACA [CACACA_negctrl_site1163] | 7.92 ± 0.45
32 | AAAACGAAACATCTGTGTATAAGTCTATATTATTAT [XGTACX_negctrl_site301] | 7.57 ± 0.63
33 | GAAAACATAAAAATATGTACTTAAAATATATTTTGT [XGTACX_site868] | 7.58 ± 0.45
34 | TTTAAATACAGACATACACACATACACCCACATATA [CACACA_site8078] | 8.25 ± 0.085
35 | TAAGAAATAAATAGTACACACATAGACACAGACACA [CACACA_site4934] | 8.3 ± 0.32
36 | TGTTTTTATTTATTCTGTACTGAAGAGAGTTATATA [XGTACX_site8859] | 7.86 ± 0.57
37 | ATATAAATTTTTTATGAACACACAAATACAGACACT [CACACA_site8848] | 8.38 ± 0.11
38 | GTATATGAGAAAAAAAGTACATGCACAAAATGTATA [XGTACX_site6441] | 8.55 ± 0.71
39 | ATAATTAAAAAAAATTGTACATATAAATAGAAGATT [XGTACX_site230] | 8.11 ± 0.56
40 | AGATTAAAATAATATAAACACACATATACTTTTTTC [CACACA_site8085] | 7.53 ± 0.54
41 | TAGGTATGCTCTCAATGTACATAAAATAATTTTACT [XGTACX_site6556] | 7.97 ± 0.3
42 | AAAAAAAAAAGAATAGCACACACACCGATATAAATA [CACACA_site8111] | 7.97 ± 0.5
43 | ATATTCATGTTGATATGTACTTATTCTATATTGAAT [XGTACX_site8347] | 7.7 ± 0.24
44 | TATATATATATATATATACACACTTGTGCAGAATAT [CACACA_site2216] | 9.78 ± 0.057

Row | Sequence | gcPBM binding intensity (ln)
45 | AATACAAGAACTGACACACATACATACTACATTTTA [CACACA_site2829] | 8 ± 0.63
46 | ATATTTATATATAGTAGTACTTTCAATAATTTAAAT [XGTACX_site7276] | 7.74 ± 0.26
47 | AAAGAAAGAAGACACACACACATATATAAATATCAA [CACACA_site7715] | 7.66 ± 0.49
48 | TATGATATTTATATGCGTACTGAAGTATGCCTATTT [XGTACX_site6133] | 7.67 ± 0.52
49 | AAAAAATTAAAAATACGTACATATATACATATATAT [XGTACX_site4621] | 7.79 ± 0.38
50 | TCATTTTAAAAAAATAGTACTTTAAGAAACTTTTAT [XGTACX_site602] | 7.45 ± 0.23
51 | TTTTTTTTTTTTTTTTTTTATGTATACATATTTATA [TGCATGCA_negctrl_site234] | 8.06 ± 0.55
52 | GATATTCTATAAAAAAGTACAAATATTTTAAAAAAT [XGTACX_site2177] | 7.91 ± 0.42
53 | TAAATCCTTTACAACACACACACAAAAAAAAAAAAA [CACACA_site643] | 8.01 ± 0.55
54 | AGCATTAATTATTTCACACATATATATATATATATA [CACACA_site4889] | 9.3 ± 0.85
55 | GATTATATATACAAAAGTACATTATAAAAATTTCAT [XGTACX_site4223] | 7.78 ± 0.26
56 | CCCTTAAAATATAAATGTACAAAATTATTTGTATGT [XGTACX_site6164] | 7.83 ± 0.55
57 | TTCTTTTAATTACGAGTGCATACCATATGACATTAT [GTGCAC_site9819] | 8.8 ± 0.33
58 | GTGAATATTAAAAAATGTACACAATTATATGTATAT [XGTACX_site4834] | 7.71 ± 0.38
59 | AGAAAAGAGAGAAAAACATGCACATGATATTATAAA [TGCATGCA_site120] | 7.79 ± 0.67
60 | ATAAACATCTAGTGCTGTACACAATTTGATTTTTTT [XGTACX_site3110] | 8.9 ± 0.31
61 | CAAATACATGGACACACACACATATACAGATATATA [CACACA_site5854] | 7.99 ± 0.24
62 | CAAACATGTTCAAATTGTACAATAGAAAATATATAT [XGTACX_site1557] | 7.93 ± 0.59
63 | TTTTTTTTTTTTTTCTGTACTTAAAAAGGGGGAGAA [XGTACX_site3799] | 8.79 ± 0.7
64 | TTGAAGTTTGATTGTAGTACGAATTGGTAGTTTTTT [XGTACX_site6854] | 7.76 ± 0.4
65 | TATTTATAACATTGTACACACAAAGAAATAATATTA [CACACA_site7422] | 7.82 ± 0.38
66 | ACGTATGTATATTACACACATACATATTATTCACTA [CACACA_site204] | 7.75 ± 0.64

Row | Sequence | gcPBM binding intensity (ln)
67 | ACATATATATACTATCGATTAATAAATTTGTTTTTT [CACACA_negctrl_site881] | 7.85 ± 0.64
68 | CATATATAACATATAACACACATACTTAGTATTACA [CACACA_site5674] | 7.79 ± 0.33
69 | ATGATAAACATGGATACACACATATATATTACATAT [CACACA_site1576] | 7.84 ± 0.48
70 | ATAATATTTTATATAGTGCATTTGCTCATTATATAT [GTGCAC_site9528] | 9.85 ± 0.45
71 | TGAGTATATATAAATACACACCAAATGTTAATATAT [CACACA_site5022] | 7.67 ± 0.64
72 | AGGTTAATCGAAATTGCATGTGACGAAAAATCAAAA [TGCATGCA_site666] | 7.7 ± 0.78
73 | TTGTATAATTTAACAAGTACAAAATAAATTTGTATA [XGTACX_site5505] | 7.46 ± 0.35
74 | TTCAATTAAAAAATATGTACGCATAAATTGATATAT [XGTACX_site4289] | 8.01 ± 0.37
75 | TTTTATGGAAAGTGTTGTACATATTTTTGTATATGT [XGTACX_site7356] | 7.96 ± 0.2
76 | AAAAGAGAAACATTTACACACAAATATAGATATATG [CACACA_site1027] | 7.51 ± 0.57
77 | ATAGTATACGGACACACACACACACCGATATATATA [CACACA_site5032] | 8.3 ± 0.65
78 | TATCTTATATTTACACGTACGTAGAATTTATAAGTT [XGTACX_site3460] | 8 ± 0.3
79 | TTTTATTAATATTATTTATCTTCTCAAAAGATATAT [XGTACX_negctrl_site202] | 7.42 ± 0.58
80 | CACACGTATAAATATACACACTAAAATACACGCACA [CACACA_site7876] | 8.58
81 | ATATATATATATATATGTACATATTTATTTATTTAT [XGTACX_site5161] | 9.31 ± 0.31
82 | AGCACAGACTAATAAACACACACATATATATATATA [CACACA_site8021] | 9.3 ± 0.35
83 | CTCATTCTTTTTTGATGTACTTTTTTTTTTTAAGTT [XGTACX_site2875] | 8.12 ± 0.28
84 | TTTTTTTTTTTTTTTTTGCAATATATTTTAAAAAAG [CACACA_negctrl_site25] | 8.14 ± 0.7
85 | TTTTTTTTTTTTTTTTTTTTTTGTGAAACTAAGTAA [CACACA_negctrl_site273] | 8.18 ± 0.78
86 | GGAAGAATATATAGGACACACATACAATAATAAATA [CACACA_site6124] | 7.93 ± 0.49
87 | AACTTCTTTTTTATAACACACAAAATATAAATACAA [CACACA_site4313] | 8.15 ± 0.34
88 | TAATACAAAAAGAAAAGTACATGTTAATTATTATTT [XGTACX_site2196] | 7.67 ± 0.43
